Measured values from paper PMC3709894.
No constants are given. Whether binding was seen depends on the method and setting. In cells and extracts the contact can be indirect. Some results given as binding are weak or reduced against the parent protein; the word gives no strength. Where a sequence is shown, tags or fusion partners need not be part of it. Blank lines part the entries; values can stand above or below the binder they belong to.

How the values were obtained:
[1] = target: T1, Myc-Rad21 WT in pCS2MT (human), O60216; assay: co-IP; 293 T cells transfected with Myc-Rad21 WT or mutants; IP from whole cell lysate, blots of endogenous cohesin subunits including endogenous Rad21; settings: remark: other sources report otherwise
T1 chain: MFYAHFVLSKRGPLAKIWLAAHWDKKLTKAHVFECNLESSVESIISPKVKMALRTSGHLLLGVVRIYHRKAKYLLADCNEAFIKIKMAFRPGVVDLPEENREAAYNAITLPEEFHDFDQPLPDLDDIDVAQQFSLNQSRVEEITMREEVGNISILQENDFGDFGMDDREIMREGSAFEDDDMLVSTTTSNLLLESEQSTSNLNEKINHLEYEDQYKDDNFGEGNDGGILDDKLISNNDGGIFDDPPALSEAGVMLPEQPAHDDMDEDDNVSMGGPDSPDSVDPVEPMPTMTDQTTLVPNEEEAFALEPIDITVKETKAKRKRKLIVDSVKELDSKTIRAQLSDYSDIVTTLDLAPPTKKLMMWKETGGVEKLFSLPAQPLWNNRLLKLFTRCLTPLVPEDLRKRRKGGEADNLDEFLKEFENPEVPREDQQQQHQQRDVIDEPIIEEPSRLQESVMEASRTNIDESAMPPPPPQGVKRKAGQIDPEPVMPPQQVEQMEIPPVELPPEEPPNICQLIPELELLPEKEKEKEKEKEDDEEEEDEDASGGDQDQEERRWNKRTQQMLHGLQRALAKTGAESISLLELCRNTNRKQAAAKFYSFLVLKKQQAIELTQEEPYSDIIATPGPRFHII

[2] = target: T2, Flag-Rad21 WT (full length) in pFlag CMV2 (human), O60216; assay: co-IP; 293 T cells co-expressing Flag- and Myc-tagged copies of Rad21 WT or of the same mutant; IP with Flag mAb or Myc pAb agarose beads; settings: remark: other sources report otherwise
T2 chain: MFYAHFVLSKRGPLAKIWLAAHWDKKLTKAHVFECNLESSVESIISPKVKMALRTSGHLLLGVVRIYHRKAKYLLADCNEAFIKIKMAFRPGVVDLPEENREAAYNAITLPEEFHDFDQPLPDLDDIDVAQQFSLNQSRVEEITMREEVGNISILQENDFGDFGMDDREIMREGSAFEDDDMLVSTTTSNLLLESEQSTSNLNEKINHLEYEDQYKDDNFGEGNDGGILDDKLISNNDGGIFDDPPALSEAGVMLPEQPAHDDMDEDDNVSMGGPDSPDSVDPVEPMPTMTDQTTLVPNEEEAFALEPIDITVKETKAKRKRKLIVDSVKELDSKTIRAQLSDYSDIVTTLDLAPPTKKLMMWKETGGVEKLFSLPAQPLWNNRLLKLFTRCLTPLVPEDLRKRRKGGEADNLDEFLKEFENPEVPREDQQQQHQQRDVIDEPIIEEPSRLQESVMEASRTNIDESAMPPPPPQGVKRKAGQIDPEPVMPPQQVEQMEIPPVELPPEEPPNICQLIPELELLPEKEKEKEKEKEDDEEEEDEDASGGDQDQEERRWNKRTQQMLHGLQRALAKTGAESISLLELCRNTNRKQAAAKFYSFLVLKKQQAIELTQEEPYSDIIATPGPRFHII

[3] = target: T3, Flag-Rad21 Del(383–392 aa), full length devoid of 383–392 aa (human) (UniProt O60216); assay: as above
T3 sequence: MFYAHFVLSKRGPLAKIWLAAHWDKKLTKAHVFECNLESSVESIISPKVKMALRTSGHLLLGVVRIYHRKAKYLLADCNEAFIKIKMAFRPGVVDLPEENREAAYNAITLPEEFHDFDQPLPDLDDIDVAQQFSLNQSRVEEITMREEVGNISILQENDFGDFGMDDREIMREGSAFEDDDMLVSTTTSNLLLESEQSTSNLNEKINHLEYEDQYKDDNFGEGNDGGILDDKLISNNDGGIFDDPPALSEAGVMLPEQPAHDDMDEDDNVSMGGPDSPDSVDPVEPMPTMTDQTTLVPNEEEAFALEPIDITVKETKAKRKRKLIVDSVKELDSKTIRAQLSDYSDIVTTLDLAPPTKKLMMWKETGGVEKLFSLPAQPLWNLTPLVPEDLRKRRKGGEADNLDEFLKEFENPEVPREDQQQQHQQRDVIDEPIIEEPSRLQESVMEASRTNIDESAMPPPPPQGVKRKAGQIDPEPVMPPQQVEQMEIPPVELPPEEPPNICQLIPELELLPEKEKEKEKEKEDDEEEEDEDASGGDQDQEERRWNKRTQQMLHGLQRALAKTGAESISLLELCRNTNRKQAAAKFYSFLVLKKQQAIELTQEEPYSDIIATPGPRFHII

binding [1]: binds
B1: endogenous Rad21, O60216 1-631 (protein)
chain: MFYAHFVLSKRGPLAKIWLAAHWDKKLTKAHVFECNLESSVESIISPKVKMALRTSGHLLLGVVRIYHRKAKYLLADCNEAFIKIKMAFRPGVVDLPEENREAAYNAITLPEEFHDFDQPLPDLDDIDVAQQFSLNQSRVEEITMREEVGNISILQENDFGDFGMDDREIMREGSAFEDDDMLVSTTTSNLLLESEQSTSNLNEKINHLEYEDQYKDDNFGEGNDGGILDDKLISNNDGGIFDDPPALSEAGVMLPEQPAHDDMDEDDNVSMGGPDSPDSVDPVEPMPTMTDQTTLVPNEEEAFALEPIDITVKETKAKRKRKLIVDSVKELDSKTIRAQLSDYSDIVTTLDLAPPTKKLMMWKETGGVEKLFSLPAQPLWNNRLLKLFTRCLTPLVPEDLRKRRKGGEADNLDEFLKEFENPEVPREDQQQQHQQRDVIDEPIIEEPSRLQESVMEASRTNIDESAMPPPPPQGVKRKAGQIDPEPVMPPQQVEQMEIPPVELPPEEPPNICQLIPELELLPEKEKEKEKEKEDDEEEEDEDASGGDQDQEERRWNKRTQQMLHGLQRALAKTGAESISLLELCRNTNRKQAAAKFYSFLVLKKQQAIELTQEEPYSDIIATPGPRFHII

binding [2]: binds
B2: Flag-Rad21 WT (full length) in pFlag CMV2, O60216 1-631 (protein)
chain: MFYAHFVLSKRGPLAKIWLAAHWDKKLTKAHVFECNLESSVESIISPKVKMALRTSGHLLLGVVRIYHRKAKYLLADCNEAFIKIKMAFRPGVVDLPEENREAAYNAITLPEEFHDFDQPLPDLDDIDVAQQFSLNQSRVEEITMREEVGNISILQENDFGDFGMDDREIMREGSAFEDDDMLVSTTTSNLLLESEQSTSNLNEKINHLEYEDQYKDDNFGEGNDGGILDDKLISNNDGGIFDDPPALSEAGVMLPEQPAHDDMDEDDNVSMGGPDSPDSVDPVEPMPTMTDQTTLVPNEEEAFALEPIDITVKETKAKRKRKLIVDSVKELDSKTIRAQLSDYSDIVTTLDLAPPTKKLMMWKETGGVEKLFSLPAQPLWNNRLLKLFTRCLTPLVPEDLRKRRKGGEADNLDEFLKEFENPEVPREDQQQQHQQRDVIDEPIIEEPSRLQESVMEASRTNIDESAMPPPPPQGVKRKAGQIDPEPVMPPQQVEQMEIPPVELPPEEPPNICQLIPELELLPEKEKEKEKEKEDDEEEEDEDASGGDQDQEERRWNKRTQQMLHGLQRALAKTGAESISLLELCRNTNRKQAAAKFYSFLVLKKQQAIELTQEEPYSDIIATPGPRFHII

binding [3]: binds
B3: Flag-Rad21 Del(383–392 aa), full length devoid of 383–392 aa (protein, UniProt O60216)
chain: MFYAHFVLSKRGPLAKIWLAAHWDKKLTKAHVFECNLESSVESIISPKVKMALRTSGHLLLGVVRIYHRKAKYLLADCNEAFIKIKMAFRPGVVDLPEENREAAYNAITLPEEFHDFDQPLPDLDDIDVAQQFSLNQSRVEEITMREEVGNISILQENDFGDFGMDDREIMREGSAFEDDDMLVSTTTSNLLLESEQSTSNLNEKINHLEYEDQYKDDNFGEGNDGGILDDKLISNNDGGIFDDPPALSEAGVMLPEQPAHDDMDEDDNVSMGGPDSPDSVDPVEPMPTMTDQTTLVPNEEEAFALEPIDITVKETKAKRKRKLIVDSVKELDSKTIRAQLSDYSDIVTTLDLAPPTKKLMMWKETGGVEKLFSLPAQPLWNLTPLVPEDLRKRRKGGEADNLDEFLKEFENPEVPREDQQQQHQQRDVIDEPIIEEPSRLQESVMEASRTNIDESAMPPPPPQGVKRKAGQIDPEPVMPPQQVEQMEIPPVELPPEEPPNICQLIPELELLPEKEKEKEKEKEDDEEEEDEDASGGDQDQEERRWNKRTQQMLHGLQRALAKTGAESISLLELCRNTNRKQAAAKFYSFLVLKKQQAIELTQEEPYSDIIATPGPRFHII
